In all, about 110,000 compounds were measured (“z-score”: median about -0.1, highest 2% from about 2 on). Some of the results follow.
Biological target: Metabotropic glutamate receptor 8 (Rattus norvegicus) (UniProt P70579)
Assay: rat mGluR8 modulators via GIRK flux, primary screen, cell-based, thallium flux, HTS (AID 488969)
Conditions: HEK293 rat mGluR8, GIRK (G protein-gated inwardly rectifying potassium channel) thallium flux, FluoZin2; at 10 µM; stronger effect = higher value; submaximal glutamate (EC20) added with thallium

UniProt P70579, sequence (P70579 whole entry, looked up): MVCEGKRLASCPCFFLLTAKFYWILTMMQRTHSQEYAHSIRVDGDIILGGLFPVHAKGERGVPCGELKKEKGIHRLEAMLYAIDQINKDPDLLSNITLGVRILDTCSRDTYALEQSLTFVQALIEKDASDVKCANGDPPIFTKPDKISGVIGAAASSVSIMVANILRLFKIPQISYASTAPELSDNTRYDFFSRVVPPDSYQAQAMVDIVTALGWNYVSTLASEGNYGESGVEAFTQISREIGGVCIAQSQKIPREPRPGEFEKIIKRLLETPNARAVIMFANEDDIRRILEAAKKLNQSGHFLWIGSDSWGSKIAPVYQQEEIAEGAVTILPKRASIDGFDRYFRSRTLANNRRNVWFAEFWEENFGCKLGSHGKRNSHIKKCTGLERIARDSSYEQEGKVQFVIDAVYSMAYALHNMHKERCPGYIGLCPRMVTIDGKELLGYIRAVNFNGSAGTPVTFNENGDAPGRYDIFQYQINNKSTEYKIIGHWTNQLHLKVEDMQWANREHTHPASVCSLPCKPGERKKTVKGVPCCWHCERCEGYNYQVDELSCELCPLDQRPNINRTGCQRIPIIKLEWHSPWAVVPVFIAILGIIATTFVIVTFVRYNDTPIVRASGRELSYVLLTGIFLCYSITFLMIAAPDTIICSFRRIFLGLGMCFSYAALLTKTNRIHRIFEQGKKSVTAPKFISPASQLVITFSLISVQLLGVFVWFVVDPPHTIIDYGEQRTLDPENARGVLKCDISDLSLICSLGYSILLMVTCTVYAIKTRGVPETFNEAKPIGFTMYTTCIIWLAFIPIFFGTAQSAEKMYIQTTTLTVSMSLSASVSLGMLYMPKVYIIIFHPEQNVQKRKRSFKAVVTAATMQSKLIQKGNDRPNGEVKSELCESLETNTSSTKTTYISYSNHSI

Compound | z-score
CSc1nc2c(cnn2-c2ccc(C)c(C)c2)c(=O)[nH]1 | 0.821
CC1=CC(C)(C)n2c(O)c(N=NC(N)=S)c3cccc1c32 | 2.69
CCc1ccc(NC(=O)NCCN2CCc3ccccc3C2)cc1 | -1.57
Cc1cccc(CSc2ncc(CO)n2C)c1 | 0.12
Cn1c(=S)[nH]c2[nH]c(=O)cnc2c1=O | -0.434
Cc1cc(C)nc(N2CCC(C(=O)Nc3ccc(Oc4ccccc4)cc3)CC2)n1 | -0.163
Cc1c(Nc2nc(-c3ccccc3)cs2)c(=O)n(-c2ccccc2)n1C | -0.216
O=C(CSc1nc2ccccc2o1)N1N=C(c2cccs2)CC1c1ccc(F)cc1 (configuration not stated) | -0.59
CC(C)CC(=O)Nc1nc2c(c(=O)[nH]1)CCCC2 | -0.0333
CCOC(=O)c1cnc(SCC(=O)Nc2ccc(N3CCOCC3)c(Cl)c2)nc1N | -0.24
O=C(O)C(Cc1ccccc1)N1C(=O)c2ccccc2C1=O (configuration not stated) | 0.813
Cc1cc2n(n1)SC(Nc1ccc(F)cc1)N2 (configuration not stated) | -0.00578
CCc1ccc(-c2nn(Cc3ccccc3)cc2/C=C/C(=O)O)cc1 | -0.317
COc1ccc(COC(=O)NC2CCN(S(=O)(=O)c3ccc(OC)cc3)CC2)cc1 | -0.669
CN(C)CCCN1c2ccccc2Sc2ccc(Cl)cc21 | -0.408
CC1(C)CC(=O)C2=C(C1)OC(N)=C(C#N)C2c1cn(-c2ccccc2)nc1-c1ccc(F)cc1 (configuration not stated) | -0.436
O=C(CN1CCN(S(=O)(=O)c2ccc3ccccc3c2)CC1)Nc1ccc(N2CCOCC2)cc1 | -0.187
CN1C2=C(C#N)C(c3ccccc3)(C(F)(F)F)NC(=O)N2c2ccccc21 (configuration not stated) | -0.282
Cc1ccc(S(=O)(=O)CC(=O)Nc2ccc(S(=O)(=O)Nc3onc(C)c3C)cc2)cc1 | 2.41

Compound | z-score
O=C(Nc1nnc(-c2ccco2)o1)c1cccc2ccccc12 | 0.259
CC(=O)NS(=O)(=O)c1ccc(NC(=S)NC(=O)C(C)C)cc1 | 0.0298
CN1CCN(C(=O)c2cc(-c3cccc(Cl)c3)on2)CC1 | 1.16
CC1CN(C(=O)CSc2nc(-c3ccccc3)cs2)CC(C)O1 (configuration not stated) | 0.179
COc1ccccc1NS(=O)(=O)c1cccc(NC(=O)Nc2cccc(Cl)c2)c1 | 0.021
O=C1CCC2CCCCC2(O)O1 (configuration not stated) | -0.0285
CCC(O)(CCN1CCCCC1)c1ccccc1 (configuration not stated) | -0.185
COc1ccc(-n2c(=O)[nH]cc(C(=O)Nc3ccccc3)c2=O)cc1 | 0.241
COc1ccc(S(=O)(=O)Nc2cc(C(=O)NC(C)C)ccc2N2CCOCC2)cc1 | -0.144
COc1cccc2c1OC[C@@H](CO)[C@H]2N(C)C(=O)Nc1ccc(Cl)cc1Cl | 0.0803
C=CCNC(=O)COC(=O)c1oc2ccccc2c1CSC1CCCCC1 | -0.253
COc1ccc(NC(=O)c2cc(=O)c3ccccc3o2)cn1 | -0.674
COc1ccc(C(=O)N(Cc2ccco2)Cc2cccs2)c(O)c1 | -0.315
Cc1cc(N(C)C)nc(SC(C)C)n1 | -0.243
Cc1cccc(C)c1OCC(=O)Nc1cccc(NC(=O)c2ccco2)c1 | -1.57
COc1cc(-n2cnnn2)ccc1S(=O)(=O)N1CCOCC1 | 1.29
CCOc1ccc(S(=O)(=O)N2CCN(C(=O)c3sccc3C)CC2)cc1 | -0.0504
COc1ccc(S(=O)(=O)N2CCN(C(=O)c3cccc(Cl)c3)CC2)cc1 | -1.33
Cc1[nH]nc2c1C(=O)CCC2 | -0.57

Compound | z-score
COc1nc(N(C)C)nc(-n2nnc(C(C)=O)c2C)n1 | -0.115
O=C(NC(c1ccccc1)c1cc(Cl)c2cccnc2c1O)c1cccnc1 (configuration not stated) | -0.0321
Clc1ccc(Cl)c2sc(N3CCCC3)nc12 | 0.162
CC(=O)N1CCN(c2nc3cc4c(cc3nc2NS(=O)(=O)c2ccccc2)OCCO4)CC1 | 0.271
Cc1[nH]c2ccccc2c1C(=O)CN1CCN(C/C=C/c2ccccc2)CC1 | 0.152
CCCn1c(=O)c(C(=O)NNS(=O)(=O)c2ccc(C)cc2)c(O)c2ccccc21 | 0.758
COc1ccc(/C=N/NC(=O)CCn2cnc(-c3ccccc3)c2-c2ccccc2)cc1 | 0.209
CC1=C(C(=O)Nc2ccccc2)C(c2ccco2)NC(=O)N1 (configuration not stated) | 0.367
Cn1c(NCCc2ccccc2)cc(=O)n(C)c1=O | -0.0577
CSc1ccc(/C=C(/NC(=O)c2ccc(C)cc2)C(=O)Nc2cccc(F)c2)cc1 | 0.0893
Cc1ccc(C(C)(C)C)c(OCCCCN2CCCC2)c1 | 0.658
Cc1nnc2ccc(N3CCOCC3)nn12 | 0.488
Cn1c(=O)c2c(ncn2CC(=O)Nc2ccccc2N2CCOCC2)n(C)c1=O | -0.33
CCCCN(C)CCn1c(=S)[nH]c2ncccc2c1=O | -0.411
CC(=O)c1ccc(N(C(=O)Cc2c[nH]c3ccccc23)C(C(=O)NC2CCCCC2)c2cccs2)cc1 (configuration not stated) | -0.116
COC(=O)c1sccc1NC(=O)Nc1cccc(Cl)c1Cl | -0.201
CCOc1ccc(S(=O)(=O)Nc2cc(C)ccn2)c2ccccc12 | -0.18
Cc1ccc(S(=O)(=O)NCC2CCC(C(=O)NCCCN3CCOCC3)CC2)cc1 (configuration not stated) | -0.27
O=C(Nc1nc(-c2cccs2)cs1)c1cccc(S(=O)(=O)N2CCCCC2)c1 | -0.435
